Laboratory results published in PubChem BioAssay AID662 (National Center for Advancing Translational Sciences (NCATS), 2007).
The whole screen tested about 71,000 compounds, of which about 1,800 (2.5%) were called active. Inconclusive means that the source gave no clear call. Such entries were picked first, then a sample of the others. Calls come from the whole dose curve; as a rule, active = well fitted activation curve with a large enough effect in the signal ratio, with a control signal flat (not every such curve was filed as active); inconclusive = small, poorly fitted or top-dose-only effect, or effect the other way, or a change in a side signal; inactive = flat fitted curve, though single readings scatter; the % refers to the signal ratio. A potency beside an inconclusive call is a rough fit, not a confirmed value.

Experiment: Cell signaling CRE-BLA (Fsk stim); for activity change, negative = inhibition: % of control where 0% means no effect
Settings: CHO CRE-bla reporter (cAMP response element driving beta-lactamase), forskolin EC10, beta-lactamase ratio; activity change, negative = inhibition: at 38.2 µM (top of the series) unless noted
In short: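 Modulation of forskolin signalling: compounds in titration series added with EC10 NKH 477 to CHO cells carrying a CRE-driven beta-lactamase reporter, 3 h, 37C. CCF4 FRET ratio (460/530 nm, ex 405 nm) gives %activity and AC50.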
Potency is the fitted concentration of half-maximal effect; tags give direction and shape of the fitted curve.

CCCC(=O)Nc1ccc(C(=O)n2nnc3ccccc32)cc1
activity change, negative = inhibition: inconclusive: 4.65%

Cc1ccc(C)c(N2CCN(C(=O)CCCn3c(=S)[nH]c4cc5c(cc4c3=O)OCO5)CC2)c1
Potency: inconclusive: 2 µM [rising, full curve, poor fit]

O=C(CS(=O)(=O)Cc1ccccc1)N1CCN(Cc2ccc3c(c2)OCO3)CC1
activity change, negative = inhibition: inconclusive: -4.3%

O=c1cc(-c2ccccc2O)oc2c(O)c(O)ccc12
activity change, negative = inhibition: inactive

CCC/C(O)=C1\C(=O)CC(C)(C)CC1=Nc1ccc(OC)cc1OC
activity change, negative = inhibition: inconclusive: 19.2%

COc1cc(C(c2nnnn2C(C)(C)C)N2CCN(c3nc4ccccc4s3)CC2)ccc1O (stereo not given)
activity change, negative = inhibition: inconclusive: -18.8%

CCCC(=O)NCCc1cc2cc(C)c(C)cc2[nH]c1=O
activity change, negative = inhibition: inconclusive: 5%

Cc1cc(N2CCN(c3ccccc3)CC2)nc(-n2nc(C)cc2C)n1
Potency: inconclusive: 20 µM [rising, single point]

Cc1nnc(SCCn2c(N3CC(C)CC(C)C3)nc3c2c(=O)[nH]c(=O)n3C)s1 (stereo not given)
activity change, negative = inhibition: inconclusive: 25.4%

CCOc1ccc(N(C(C)C(=O)Nc2ccc(OC)cc2)S(C)(=O)=O)cc1 (stereo not given)
activity change, negative = inhibition: inactive: -16.6% [at 7.6 µM]

CCOC(=O)C1Cn2c(nc3c(c2=O)C(C)(CC)Cc2ccccc2-3)S1 (stereo not given)
activity change, negative = inhibition: inconclusive: 23.3%

O=C(c1cccc(-c2nnc(-c3ccccc3)o2)c1)N1CCCCC1
activity change, negative = inhibition: inconclusive: 5.43%

CC(=O)Nc1cccc(NC(=O)CSc2ncc(-c3ccc(Cl)cc3)n2Cc2ccco2)c1
Potency: inconclusive: 25.1 µM [falling, single point]

O=C(OCC(=O)N1CCN(c2ccccc2)CC1)c1ccccn1
activity change, negative = inhibition: inactive

Cc1nc2ncnn2c(C)c1CCC(=O)N1CCOCC1
activity change, negative = inhibition: inconclusive: -42.2%

CCNc1ncc2nc(C)c(=O)n(Cc3ccc(F)cc3)c2n1
Potency: inconclusive: 6.31 µM [rising, partial curve]

CCNc1oc(COc2cccc(C)c2)nc1C#N
activity change, negative = inhibition: inactive

COC(=O)[C@@]1(Cc2ccc(OC)cc2)[C@H]2c3cc(C(=O)N4CCCC4)n(Cc4ccc(Cl)c(C(F)(F)F)c4)c3C[C@H]2CN1C(=O)c1ccccc1
activity change, negative = inhibition: inactive

O=C1c2ccccc2NC2(CCCCC2)N1c1ccc(O)cc1
activity change, negative = inhibition: inactive

COc1ccc(OC)c2sc(N3CCN(c4ccccc4)CC3)nc12
Potency: inconclusive: 5.01 µM [rising, partial curve]

CS(=O)(=O)N1CCN(c2ccccc2NC(=O)c2ccc(-c3ccc(Cl)cc3Cl)o2)CC1
Potency: inconclusive: 2.51 µM [rising, full curve]

CCc1c(O)nc(SCC(=O)Nc2ccccc2OC)[nH]c1=O
Potency: inconclusive: 0.00316 µM [falling, full curve, poor fit]

OCCOCCN1CCN([C@@H](c2ccccc2)c2ccc(Cl)cc2)CC1
activity change, negative = inhibition: inactive

NCc1ccc(-c2nc3ccccc3o2)cc1
activity change, negative = inhibition: inactive

O=C(Nc1ccccc1C(F)(F)F)C1CC(=O)N(c2ccccc2F)C1 (stereo not given)
activity change, negative = inhibition: inconclusive: -2.49%

Cc1ccccc1CSc1nnc(-c2cccnc2)n1N
Potency: inconclusive: 20 µM [rising, single point]

O=C(Nc1cccc(Cn2cccn2)c1)c1cc2c(s1)CCCC2
activity change, negative = inhibition: inconclusive: 6.2%

CN(C)Cc1cc(C(C)(C)C)cc(CNC2CCCCC2)c1O
activity change, negative = inhibition: inactive: -1% [at 7.6 µM]

O=C(Nc1ccc2c(c1)OCCO2)NC1CCCCC1
activity change, negative = inhibition: inconclusive: 4.44% [at 7.6 µM]

CCOC(=O)c1sc(-c2ccccc2)cc1NC(=O)CSc1nnnn1C
Potency: inconclusive: 10 µM [rising, single point]

Nc1c(OCC(=O)O)ccc2cc(S(=O)(=O)O)ccc12
activity change, negative = inhibition: inactive: -1.04% [at 7.6 µM]

OC(COc1cccc2ccccc12)CN1CCN(c2ccccn2)CC1 (stereo not given)
activity change, negative = inhibition: inconclusive: 1.14%

CCCn1c(-c2ccc(F)cc2)nc2c(NCCN3CCSCC3)nc(C)nc21
activity change, negative = inhibition: inconclusive: 25.2%

COCCn1nnnc1C(C(C)C)N(Cc1ccccc1)Cc1cc2cc(OC)ccc2[nH]c1=O (stereo not given)
activity change, negative = inhibition: inactive

CC(C)NC(=O)N1CCC2(CC1)CCN(C(=O)c1ccco1)CC2
activity change, negative = inhibition: inconclusive: 1.74%

COC(=O)C1=C(C)NC(C)=C(C(=O)OC)C1c1ccc(N(C)C)cc1
activity change, negative = inhibition: inconclusive: 2.04%

c1ccc2c(c1)[nH]c1c(N3CCOCC3)ncnc12
activity change, negative = inhibition: inactive

CCc1cc2c(SCC(=O)O)ncnc2s1
Potency: inconclusive: 15.8 µM [falling, partial curve, poor fit]

CCSc1nc2c(cnn2-c2ccc(C)cc2)c(=O)[nH]1
Potency: active: 10 µM

COC(=O)[C@@]1(Cc2ccc(OC)cc2)[C@H]2c3cc(C(=O)N4CCCC4)n(Cc4c(CO)[nH]cc(C)c4=O)c3C[C@H]2CN1C(=O)c1ccccc1
Potency: inconclusive: 7.94 µM [falling, partial curve]
